# Laboratory results taken from the supplement of paper PMC8728848.
# This is one part of the list.
# Columns and labels:
# Test in all cases: glycan array binding signal (z-score within array); higher = stronger binding
# Settings in all cases: glycan notation: IUPAC condensed, linker removed
# [1] = target: Fuc(b1-3)GlcNAc
# Method in brief: (§1)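 Negative Z-scores can be read as non-binding. The Z-score is calculated within each array and then averaged across arrays of one protein sequence at different concentrations or buffers and across linkers. Arrays, 3228 in all, were curated from the Consortium for Functional Glycomics database and kept only where the protein sequence was available.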
# [2] = target: Gal(a1-2)Gal
# Method in brief: as §1
# [3] = target: Gal(a1-3)Gal
# Method in brief: as §1
# [4] = target: Gal(a1-3)Gal(b1-3)GlcNAc
# Method in brief: as §1
# [5] = target: Gal(a1-3)Gal(b1-3)GlcNAc(b1-2)Man
# Method in brief: as §1
# [6] = target: Gal(a1-3)Gal(b1-3)GlcNAc(b1-2)Man(a1-3)[Gal(a1-3)Gal(b1-3)GlcNAc(b1-2)Man(a1-6)]Man(b1-4)GlcNAc(b1-4)GlcNAc
# Method in brief: as §1
# [7] = target: Gal(a1-3)Gal(b1-3)GlcNAc(b1-3)GalNAc
# Method in brief: as §1
# [8] = target: Gal(a1-3)Gal(b1-3)GlcNAc(b1-6)GalNAc
# Method in brief: as §1
# [9] = target: Gal(a1-3)Gal(b1-3)[Fuc(a1-4)]GlcNAc(b1-2)Man(a1-3)[Gal(a1-3)Gal(b1-3)[Fuc(a1-4)]GlcNAc(b1-2)Man(a1-6)]Man(b1-4)GlcNAc(b1-4)GlcNAc
# Method in brief: as §1
# [10] = target: Gal(a1-3)Gal(b1-4)Glc
# Method in brief: as §1
# [11] = target: Gal(a1-3)Gal(b1-4)GlcNAc
# Method in brief: as §1
# [12] = target: Gal(a1-3)Gal(b1-4)GlcNAc(b1-2)Man
# Method in brief: as §1
# [13] = target: Gal(a1-3)Gal(b1-4)GlcNAc(b1-2)Man(a1-3)[Gal(a1-3)Gal(b1-4)GlcNAc(b1-2)Man(a1-6)]Man(b1-4)GlcNAc(b1-4)GlcNAc
# Method in brief: as §1
# [14] = target: Gal(a1-3)Gal(b1-4)GlcNAc(b1-3)GalNAc
# Method in brief: as §1
# [15] = target: Gal(a1-3)Gal(b1-4)GlcNAc(b1-6)GalNAc
# Method in brief: as §1
# [16] = target: Gal(a1-3)Gal(b1-4)[Fuc(a1-3)]GlcNAc
# Method in brief: as §1
# [17] = target: Gal(a1-3)Gal(b1-4)[Fuc(a1-3)]GlcNAc(b1-2)Man(a1-3)[Gal(a1-3)Gal(b1-4)[Fuc(a1-3)]GlcNAc(b1-2)Man(a1-6)]Man(b1-4)GlcNAc(b1-4)GlcNAc
# Method in brief: as §1
# [18] = target: Gal(a1-3)GalNAc
# Method in brief: as §1
# [19] = target: Gal(a1-3)[Gal(a1-4)]Gal(b1-4)GlcNAc
# Method in brief: as §1
# [20] = target: Gal(a1-4)Gal(b1-3)GlcNAc(b1-2)Man(a1-3)[Gal(a1-4)Gal(b1-3)GlcNAc(b1-2)Man(a1-6)]Man(b1-4)GlcNAc(b1-4)GlcNAc
# Method in brief: as §1
# [21] = target: Gal(a1-4)Gal(b1-4)Glc
# Method in brief: as §1
# [22] = target: Gal(a1-4)Gal(b1-4)GlcNAc
# Method in brief: as §1
# [23] = target: Gal(a1-4)Gal(b1-4)GlcNAc(b1-2)Man(a1-3)[Gal(a1-4)Gal(b1-4)GlcNAc(b1-2)Man(a1-6)]Man(b1-4)GlcNAc(b1-4)GlcNAc
# Method in brief: as §1
# [24] = target: Gal(a1-4)Gal(b1-4)GlcNAc(b1-3)Gal(b1-4)Glc
# Method in brief: as §1
# [25] = target: Gal(a1-4)GlcNAc
# Method in brief: as §1
# [26] = target: Gal(a1-6)Glc
# Method in brief: as §1
# [27] = target: Gal(b1-2)Gal
# Method in brief: as §1
# [28] = target: Gal(b1-3)Gal
# Method in brief: as §1
# [29] = target: Gal(b1-3)Gal(b1-4)GlcNAc
# Method in brief: as §1
# [30] = target: Gal(b1-3)Gal(b1-4)GlcNAc(b1-2)Man(a1-3)[Gal(b1-3)Gal(b1-4)GlcNAc(b1-2)Man(a1-6)]Man(b1-4)GlcNAc(b1-4)GlcNAc
# Method in brief: as §1
# [31] = target: Gal(b1-3)GalNAc
# Method in brief: as §1
# [32] = target: Gal(b1-3)GalNAc(a1-3)[Fuc(a1-2)]Gal(b1-4)Glc
# Method in brief: as §1
# [33] = target: Gal(b1-3)GalNAc(a1-3)[Fuc(a1-2)]Gal(b1-4)GlcNAc
# Method in brief: as §1
# [34] = target: Gal(b1-3)GalNAc(b1-3)Gal
# Method in brief: as §1
# [35] = target: Gal(b1-3)GalNAc(b1-3)Gal(a1-4)Gal(b1-4)Glc
# Method in brief: as §1
# [36] = target: Gal(b1-3)GalNAc(b1-4)Gal(b1-4)Glc
# Method in brief: as §1
# [37] = target: Gal(b1-3)GalNAc(b1-4)[Neu5Ac(a2-3)]Gal(b1-4)Glc
# Method in brief: as §1
# [38] = target: Gal(b1-3)GlcNAc
# Method in brief: as §1
# [39] = target: Gal(b1-3)GlcNAc(a1-3)Gal(b1-4)GlcNAc
# Method in brief: as §1
# [40] = target: Gal(b1-3)GlcNAc(a1-6)Gal(b1-4)GlcNAc
# Method in brief: as §1
# [41] = target: Gal(b1-3)GlcNAc(b1-2)Man
# Method in brief: as §1
# [42] = target: Gal(b1-3)GlcNAc(b1-2)Man(a1-3)[Gal(b1-3)GlcNAc(b1-2)Man(a1-6)]Man(b1-4)GlcNAc(b1-4)GlcNAc
# Method in brief: as §1
# [43] = target: Gal(b1-3)GlcNAc(b1-2)Man(a1-3)[Gal(b1-3)GlcNAc(b1-2)Man(a1-6)]Man(b1-4)GlcNAc(b1-4)[Fuc(a1-6)]GlcNAc
# Method in brief: as §1
# [44] = target: Gal(b1-3)GlcNAc(b1-2)Man(a1-3)[GlcNAc(b1-4)][Gal(b1-3)GlcNAc(b1-2)Man(a1-6)]Man(b1-4)GlcNAc(b1-4)GlcNAc
# Method in brief: as §1
# [45] = target: Gal(b1-3)GlcNAc(b1-2)[Gal(b1-3)GlcNAc(b1-6)]Man(a1-6)[Gal(b1-3)GlcNAc(b1-2)Man(a1-3)]Man(b1-4)GlcNAc(b1-4)GlcNAc
# Method in brief: as §1
binder,measurement,setting,value
OrysaEULS2 (Oryza sativa) (protein) MVYCRANPNYAMTARNGAVVLAPANPKDEYQHWIKDMRWSTSIKDEEGYPAFALVNKATGQAIKHSLGQSHPVRLVPYNPEVMDESVLWTESRDVGNGFRCIRMVNNIYLNFDAFHGDKYHGGVRDGTDIVLWKWCEGDNQRWKIQPYYILEQKLISEEDLNSAVDHHHHHH,glycan array binding signal (z-score),[1],-0.201
same,glycan array binding signal (z-score),[2],-0.168
same,glycan array binding signal (z-score),[3],-0.137
same,glycan array binding signal (z-score),[4],-0.039
same,glycan array binding signal (z-score),[5],-0.28
same,glycan array binding signal (z-score),[6],0.432
same,glycan array binding signal (z-score),[7],-0.176
same,glycan array binding signal (z-score),[8],-0.212
same,glycan array binding signal (z-score),[9],0.2
same,glycan array binding signal (z-score),[10],-0.204
same,glycan array binding signal (z-score),[11],-0.19
same,glycan array binding signal (z-score),[12],-0.269
same,glycan array binding signal (z-score),[13],1.29
same,glycan array binding signal (z-score),[14],-0.213
same,glycan array binding signal (z-score),[15],-0.208
same,glycan array binding signal (z-score),[16],-0.216
same,glycan array binding signal (z-score),[17],-0.064
same,glycan array binding signal (z-score),[18],-0.198
same,glycan array binding signal (z-score),[19],-0.09
same,glycan array binding signal (z-score),[20],2.38
same,glycan array binding signal (z-score),[21],-0.2
same,glycan array binding signal (z-score),[22],-0.211
same,glycan array binding signal (z-score),[23],0.579
same,glycan array binding signal (z-score),[24],-0.209
same,glycan array binding signal (z-score),[25],-0.191
same,glycan array binding signal (z-score),[26],-0.189
same,glycan array binding signal (z-score),[27],-0.142
same,glycan array binding signal (z-score),[28],-0.207
same,glycan array binding signal (z-score),[29],-0.212
same,glycan array binding signal (z-score),[30],1.1
same,glycan array binding signal (z-score),[31],-0.18
same,glycan array binding signal (z-score),[32],-0.179
same,glycan array binding signal (z-score),[33],-0.204
same,glycan array binding signal (z-score),[34],-0.288
same,glycan array binding signal (z-score),[35],-0.193
same,glycan array binding signal (z-score),[36],-0.2
same,glycan array binding signal (z-score),[37],-0.181
same,glycan array binding signal (z-score),[38],-0.199
same,glycan array binding signal (z-score),[39],-0.191
same,glycan array binding signal (z-score),[40],-0.171
same,glycan array binding signal (z-score),[41],-0.251
same,glycan array binding signal (z-score),[42],1.19
same,glycan array binding signal (z-score),[43],0.304
same,glycan array binding signal (z-score),[44],-0.12
same,glycan array binding signal (z-score),[45],0.672
